Experimental data as given in PubChem BioAssay (NCI).
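Values below derive from 48-hour exposures of cells grown in 96-well plates, with endpoints linearly interpolated between the two concentrations bracketing the appropriate inhibition level. GI50 = concentration required for 50% inhibition of growth. TGI: total growth inhibition.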

Tested on: NCI-H322M lung
Test: growth of human tumour cells (NCI), 48 h

Structure (SMILES)	GI50 [µM]	TGI [µM]
C#Cc1nc(C(=O)NCCC(=O)Nc2ccc(NC(=O)c3ccc(/C=C/C(=O)c4nccn4C)cc3)cc2)cs1	3.53	> 50
CCn1c(SCC(=O)Nc2cccc(C(=O)/C=C/c3cc(OC)c(OC)c(OC)c3)c2)nc2ccccc2c1=O	3.58	> 100
COc1ccccc1NC1=C(Cl)C(=O)c2nc(C)ccc2C1=O	2.5	7.69
